In patent US12122815B2, “GIP receptor agonist peptide compounds and uses thereof” (TAKEDA PHARMACEUTICAL COMPANY LIMITED, priority 2018, dated 2024):
Not every detail of the peptide structures is certain; ends, links or a residue may be inferred.

Legend:
human GLP-1R = target: T1, human GLP-1R (Homo sapiens, UniProt P43220); experiment: Agonist activity on human GLP-1R, CRE-luciferase reporter assay with increase in intracellular cAMP as indicator (hGLP-1R/CRE-luc/CHO-K1 cell); format: cell-based; settings: 100% = 10 nM GLP-1, read-out: hGLP-1R (Reporter gene assay) (EC50)
T1 construct: FLAG (N)
Source text: (§1) Evaluation of Agonist Activity on Human GIPR and Human GLP-1R with Increase in Intracellular cAMP Concentration as Indicator
(§2) A) Evaluation of Agonist Activity on Human GIPR and Human GLP-IR with Increase in Intracellular cAMP Concentration as Indicator
(§3) (3) Construction of Reporter Plasmid
(§4) Four Copies of a cAMP responsive sequence and a Zeocin resistance gene were transferred to pGL3(R2.2)-Basic Vector (Promega) to construct a Cre-luc(Zeo) reporter plasmid.
(5) Construction of Expression Plasmid of Human GLP-1R Gene
The human GLP-IR gene having an identical sequence to Genebank Accession No. NM_002062 was cloned into a pIRESneo3 vector to prepare hGLP-1/pIRESneo3.
(6) Transfer of Human GLP-1R Gene and Reporter Plasmid to CHO-K1 Cell and Obtaining of Expressing Cell
The Cre-luc (Zeo) obtained in (3) and the plasmid hGLP-1/pIRESneo3 obtained in (5) were transferred to the CHO-K1 cell to obtain a transformant. Subsequently, the cell line inducing the luciferase expression, hGLP-1R/CRE-luc/CHO-K1 cell, was selected from the obtained transformant by adding GLP-1.
(§5) 25 μL each of the hGIPR/CRE-LUC/CHO-K1 cell was inoculated in a 384-well white plate (Corning) in such a way as to provide 5×10^3 cells/well and cultured in a HamF12 medium containing 10% fetal bovine serum, 100 U/mL penicillin, and 100 μg/mL streptomycin in a CO2 incubator at 37° C. overnight. 5 μL of a medium containing a test compound was added to the cells and incubated for 4 hours at the indicated concentration in a CO2 incubator at 37° C. Steady-Glo (Promega) was added in amounts of 30 μL and shaken under light shielding. 20 Minutes later, luciferase activity was measured using a plate reader Envision (PerkinElmer). The GIPR agonist activity was calculated with increase in intracellular cAMP concentration as the indicator when the luciferase activity in the presence of 10 nM of GIP was 100% and the luciferase activity in the case of adding DMSO instead of the test compound was 0%.
The GLP-IR agonist activity was assayed in the same manner as above using the hGLP-1R/CRE-luc/CHO-K1 cell.

human GIPR = target: T2, human GIPR (Homo sapiens, UniProt P48546); experiment: Agonist activity on human GIPR, CRE-luciferase reporter assay with increase in intracellular cAMP as indicator (hGIPR/CRE-LUC/CHO-K1 cell); format: cell-based; settings: 4 hours incubation, 100% = 10 nM GIP, read-out: hGIPR (polyclonal) Reporter (EC50)
T2 construct: FLAG (N)
T2 sequence (P48546 22-466): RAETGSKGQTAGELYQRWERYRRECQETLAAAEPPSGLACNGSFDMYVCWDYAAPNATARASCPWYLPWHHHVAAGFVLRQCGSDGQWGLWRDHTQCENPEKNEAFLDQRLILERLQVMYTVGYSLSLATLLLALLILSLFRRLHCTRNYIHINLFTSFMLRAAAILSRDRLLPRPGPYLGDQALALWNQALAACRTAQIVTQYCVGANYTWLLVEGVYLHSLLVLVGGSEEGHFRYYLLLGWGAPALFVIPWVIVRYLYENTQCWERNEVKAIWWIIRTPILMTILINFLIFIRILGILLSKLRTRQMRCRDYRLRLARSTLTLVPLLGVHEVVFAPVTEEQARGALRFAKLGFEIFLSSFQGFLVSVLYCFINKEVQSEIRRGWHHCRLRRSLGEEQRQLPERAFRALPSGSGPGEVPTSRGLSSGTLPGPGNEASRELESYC
Source text: as §1, §2
(1) Construction of Expression Plasmid of Human GIPR Gene. The Human GIPR Gene Having an Identical Sequence to Genebank Accession No. U39231 was Cloned into a pMSRα-Neo Vector to Prepare hGIPR/pMSRα-Neo.
(2) Construction of Reporter Plasmid Expressing Cell Luciferase Reporter Gene with a cAMP-Responsive Sequence Located Upstream was Transferred to a CHO-K1 Cell to Construct a CRE-LUC/CHO-K1 Cell.
as §3, §4
(4) Transfer of Human GIPR Gene to CRE-LUC/CHO-K1 Cell and Obtaining of Expressing Cell the Plasmid hGIPR/pMSRα-Neo Obtained in (1) was Transferred to the CRELUC.
CHO-K1 cell obtained in (2) to obtain a transformant. Subsequently, the cell line inducing the luciferase expression, hGIPR/CRE-LUC/CHO-K1 cell, was selected from the obtained transformant by adding GIP.
as §5

T1 sequence (P43220 24-463): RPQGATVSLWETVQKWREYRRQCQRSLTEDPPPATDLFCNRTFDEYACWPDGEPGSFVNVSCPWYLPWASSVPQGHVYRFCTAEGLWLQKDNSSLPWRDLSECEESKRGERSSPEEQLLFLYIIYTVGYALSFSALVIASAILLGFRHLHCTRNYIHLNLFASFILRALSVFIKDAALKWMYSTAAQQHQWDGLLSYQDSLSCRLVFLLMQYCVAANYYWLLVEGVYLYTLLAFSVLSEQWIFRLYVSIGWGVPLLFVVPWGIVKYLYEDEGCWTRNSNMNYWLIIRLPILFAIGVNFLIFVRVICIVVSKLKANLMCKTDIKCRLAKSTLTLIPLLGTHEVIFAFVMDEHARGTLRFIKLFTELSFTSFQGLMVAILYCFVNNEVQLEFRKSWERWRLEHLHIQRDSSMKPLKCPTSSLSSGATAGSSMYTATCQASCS

| EC50 (human GLP-1R) [nM] | EC50 (human GIPR) [nM] | SMILES |
| --- | --- | --- |
| > 1000 | 0.02 | CC[C@H](C)[C@H](NC(=O)[C@H](CO)NC(=O)[C@H](Cc1ccc(O)cc1)NC(=O)[C@H](CC(=O)O)NC(=O)[C@H](CO)NC(=O)[C@@H](NC(=O)[C@](C)(CC)NC(=O)[C@@H](NC(=O)CNC(=O)[C@H](CCC(=O)O)NC(=O)C(C)(C)NC(=O)[C@H](Cc1ccc(O)cc1)NC)[C@@H](C)O)[C@@H](C)CC)C(=O)NC(C)(C)C(=O)N[C@@H](CC(C)C)C(=O)N[C@@H](CC(=O)O)C(=O)N[C@@H](CCCNC(=N)N)C(=O)NC(C)(C)C(=O)N[C@@H](C)C(=O)N[C@@H](CCC(N)=O)C(=O)NC(C)(C)C(=O)N[C@@H](CC(N)=O)C(=O)N[C@@H](Cc1ccccc1)C(=O)N[C@H](C(=O)N[C@@H](CC(N)=O)C(=O)N[C@@H](Cc1c[nH]c2ccccc12)C(=O)N[C@@](C)(CC)C(=O)N[C@@H](CC(C)C)C(=O)N[C@@H](C)C(=O)N[C@@H](CCC(N)=O)C(=O)N[C@@H](CCCNC(=N)N)C(=O)N1CCC[C@H]1C(=O)N[C@@H](CCCCNC(=O)CNC(=O)CNC(=O)CNC(=O)CNC(=O)CNC(=O)CNC(=O)CCCCCCCCCCCCCCCCC(=O)O)C(=O)N[C@@H](CO)C(=O)NCC(=O)N[C@@H](C)C(=O)N1CCC[C@H]1C(=O)N1CCC[C@H]1C(=O)N1CCC[C@H]1C(=O)N[C@@H](CO)C(=O)N[C@@H](CCCNC(=N)N)C(N)=O)C(C)C [Compound 88] |
| > 1000 | 0.0057 | CC[C@H](C)[C@H](NC(=O)[C@H](CO)NC(=O)[C@H](Cc1ccc(O)cc1)NC(=O)[C@H](CC(=O)O)NC(=O)[C@H](CO)NC(=O)[C@@H](NC(=O)[C@](C)(CC)NC(=O)[C@@H](NC(=O)CNC(=O)[C@H](CCC(=O)O)NC(=O)C(C)(C)NC(=O)[C@H](Cc1ccc(O)cc1)NC)[C@@H](C)O)[C@@H](C)CC)C(=O)NC(C)(C)C(=O)N[C@@H](CC(C)C)C(=O)N[C@@H](CC(=O)O)C(=O)N[C@@H](CCCNC(=N)N)C(=O)NC(C)(C)C(=O)N[C@@H](C)C(=O)N[C@@H](CCC(N)=O)C(=O)NC(C)(C)C(=O)N[C@@H](CC(N)=O)C(=O)N[C@@H](Cc1ccccc1)C(=O)N[C@H](C(=O)N[C@@H](CC(N)=O)C(=O)N[C@@H](Cc1c[nH]c2ccccc12)C(=O)N[C@@](C)(CC)C(=O)N[C@@H](CC(C)C)C(=O)N[C@@H](C)C(=O)N[C@@H](CCC(N)=O)C(=O)N[C@@H](CCCNC(=N)N)C(=O)N1CCC[C@H]1C(=O)N[C@@H](CO)C(=O)N[C@@H](CO)C(=O)NCC(=O)N[C@@H](C)C(=O)N1CCC[C@H]1C(=O)N[C@@H](CCCCNC(=O)CNC(=O)CNC(=O)CNC(=O)CNC(=O)CNC(=O)CNC(=O)CCCCCCCCCCCCCCC(=O)O)C(=O)N1CCC[C@H]1C(=O)N[C@@H](CO)C(=O)N[C@@H](CCCNC(=N)N)C(N)=O)C(C)C [Compound 102] |
